According to PubChem BioAssay AID924 (National Center for Advancing Translational Sciences (NCATS), 2007):
Values joined by “and” are separate entries in the source; they are usually repeats but may differ in a detail not shown here. Equal entries are not always repeated. The campaign covered roughly 130,000 compounds. About 1,200 (0.92%) were called active. The inconclusive results got no clear call from the source; some entries with a clear call stand among them for comparison. The call rests on the fitted dose curve; in most records, active means well fitted cell-killing curve with a large enough effect; inconclusive means small, poorly fitted or top-dose-only effect; inactive means no such curve, though single readings can be large or run the other way. A potency beside an inconclusive call is a rough fit, not a confirmed value.

Test: qHTS Screen for Compounds that Selectively Target Cancer Cells with p53 Mutations: Cytotoxicity of p53ts Cells at the Permissive Temperature; further: nearly all actives have a fitted effect of over 55% in size;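 on activity change, negative = cytotoxicity: 0% = DMSO and -100% = full killing by reference compound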
Conditions: H1299-p53A138V at 32C, ATP luminescence viability, 24 h; activity change, negative = cytotoxicity: at 46.1 µM (top of the series)
Method in brief: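 Cells: H1299 p53ts (A138V), 600/well, pre-incubated 16–30 h at 37C. Cpd up to 46 uM, 24 h, 32C. Readout: ATPlite luminescence, 20 min RT. Normalization: DMSO vs tamoxifen 100 uM. AC50 by Hill equation.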
Potency means the concentration at half of the fitted maximal effect; tags describe the fitted curve by direction and shape.

| SMILES | Potency | activity change, negative = cytotoxicity |
| --- | --- | --- |
| O=C(NC(=S)N(CCc1ccccc1)CCc1ccccc1)c1ccco1 | inactive | – |
| O=C(Nc1ncc(Br)s1)C(Cc1ccccc1)n1cccc1 (stereo not given) | inconclusive: 31.6 µM [cytotoxic, single point] | – |
| CCc1ccccc1NC(=O)CN(C)C(=O)Cn1ncc(Cl)c(Cl)c1=O | active: 3.55 µM | – |
| COc1ccc2nc3c(cc2c1)c(NC(=O)c1cccs1)nn3CC(C)C | inconclusive: 31.6 µM [cytotoxic, single point] | – |
| Clc1ccc(OCc2nn3c(-c4ccco4)nnc3s2)c(Cl)c1 | inactive | – |
| c1ccc2c(c1)Cc1cc3cc4c(cc3nc1-2)OCO4 | active: 1 µM | – |
| Cc1cc(C)cc(-n2cnc3cc(C(=O)NCCc4ccccc4)ccc32)c1 | inconclusive: 28.2 µM [cytotoxic, partial curve] | – |
| COCCn1c(C)cc(C(=O)CSc2ccc(NC(C)=O)cc2)c1C | inconclusive: 10 µM [cytotoxic, partial curve] | – |
| O=C(NC1=NCCS1)c1ccc(-c2ccc(Cl)cc2)o1 | inconclusive: 10 µM [cytotoxic, partial curve] | – |
| COc1ccccc1-c1cc(C(F)(F)F)nc(S(=O)(=O)CCCC(=O)N2CCCCC2C)n1 (stereo not given) | inconclusive: 31.6 µM [cytotoxic, single point] | – |
| CCc1ccc(NCc2cc3cc4c(cc3n(CC(=O)Nc3ccc(Cl)cc3)c2=O)OCO4)cc1 | inactive | – |
| Cc1cc(C)cc(OCC(=O)NCC(c2ccc(Cl)cc2)N2CCCCC2)c1 (stereo not given) | inconclusive: 8.91 µM [cytotoxic, partial curve, poor fit] | – |
| Cc1ccc(Cn2c(=O)n(CCCCC(=O)NCCc3ccc(Cl)cc3)c(=O)c3ccccc32)cc1 | inactive | – |
| CCCCc1c(O)c2ccccc2[nH]c1=O | inactive | – |
| COc1ccc(-c2nc3cnc(N(C)C)nc3n(C)c2=O)cc1 | inconclusive: 3.98 µM [cytotoxic, full curve] | – |
| CCCCCCCC/C=C\CCCCCCCC(=O)N[C@@H](CO)Cc1ccc(O)cc1 | inconclusive: 31.6 µM [cytotoxic, single point] | – |
| CCCCCCCCCCCCC/C=C\[C@@H](O)[C@H](CO)NC(C)=O | inactive | – |
| O=C(CC1N=C2c3ccccc3N=C(SCC(=O)Nc3cccc(C(F)(F)F)c3)N2C1=O)NCc1cccs1 (stereo not given) | inactive | – |
| O=C(Nc1cccc(Cl)c1)c1ccc2c(=O)n3c(nc2c1)CCCCC3 | inconclusive: 20 µM [cytotoxic, single point] | – |
| COC(=O)CCC(=O)c1oc2ccc(Br)cc2c1N | inactive and inconclusive: 12.6 µM [cytotoxic, partial curve] | – |
| Oc1c(I)cc(I)c2cccnc12 | inconclusive: 25.1 µM [cytotoxic, single point] | – |
| CCOc1ccc2nc(N3CCN(C(=O)CS(=O)(=O)c4ccc(F)cc4)CC3)sc2c1 | active: 14.1 µM | – |
| COc1ccc(Cn2c(C3CC3)nc3ccc(NC(C)=O)cc3c2=O)cc1 | inactive | – |
| COc1ccccc1Nc1cc(C)nc2nc(-c3ccccc3)nn12 | inactive | – |

| SMILES | Potency | activity change, negative = cytotoxicity |
| --- | --- | --- |
| CCC(C)NC(=O)Cn1c(=O)n(Cc2ccc(C(=O)NCCCOC)cc2)c(=O)c2ccccc21 (stereo not given) | inactive | – |
| Cc1ccc(NC(=O)c2ccc(NC(=O)N3CCSc4ncccc43)cc2)cc1Cl | inconclusive: 12.6 µM [cytotoxic, partial curve] | – |
| Cc1ccc(-c2nc3scc(CCNC(=O)c4cccc(Br)c4)n3n2)cc1 | inconclusive: 25.1 µM [cytotoxic, single point] | – |
| COc1ccc2cc(CCC(C)=O)ccc2c1 | inconclusive: 15.8 µM [cytotoxic, single point] | – |
| CCOc1ccccc1NC(=O)C(C)Sc1cc(-c2ccccc2)nc(C)n1 (stereo not given) | inconclusive: 3.98 µM [cytotoxic, single point] | – |
| OCc1nc2ccccc2n1CCCOc1ccccc1 | inconclusive: 12.6 µM [cytotoxic, single point] | – |
| O=C(O)[C@H]1C[C@H](C(=O)O)N1 | inactive | – |
| O=C(Nc1nsc(-c2ccccc2)n1)c1ccncc1 | inconclusive: 10 µM [cytotoxic, partial curve] | – |
| O=C(CSc1nc(=O)n(Cc2ccncc2)c2c1CCC2)Nc1ccccc1 | inactive | – |
| Cc1nc2ccccc2c2oc(C(=O)N3CCc4ccccc4C3)cc12 | inconclusive: 25.1 µM [cytotoxic, single point] | – |
| CSc1ccccc1NC(=O)c1ccoc1C | inconclusive: 31.6 µM [cytotoxic, single point] | – |
| COc1ccccc1-c1cc(C(=O)Nc2c(C)nn(Cc3ccc(Cl)cc3)c2C)no1 | inconclusive: 31.6 µM [cytotoxic, single point] | – |
| O=C(NCc1ccco1)c1cc2ccc(O)cc2oc1=O | inconclusive: 10 µM [cytotoxic, partial curve] | – |
| Cn1cc(S(=O)(=O)CC(=O)Nc2ccc3c(c2)OCCO3)c2ccccc21 | inconclusive: 10 µM [cytotoxic, partial curve] | – |
| Cc1cccc(NC(=O)CSc2nnc(-c3ccccc3C)o2)c1 | inconclusive: 10 µM [cytotoxic, partial curve] | – |
| COc1ccc(C)cc1NC(=O)C1CC(=O)N(Cc2ccco2)C1 (stereo not given) | inactive | – |
| Cc1cn2c(=O)cc(COC(=O)c3cccc(NC(=O)C(C)Oc4ccccc4)c3)nc2s1 (stereo not given) | inactive | – |
| Cc1nc2nc(COc3ccccc3)[nH]n2c(=O)c1Cl | inconclusive: 15.8 µM [cytotoxic, single point] | – |
| Cn1c(-c2ccc(Br)o2)nc2ccccc21 | active: 7.94 µM | – |
| Nc1nc(=S)c2ncn([C@H]3O[C@@H](CO)[C@@H](O)[C@@H]3O)c2[nH]1 | inconclusive: 7.94 µM [cytotoxic, partial curve] | – |
| C/C=C/c1ccc(OCCSc2nc(C)cc(=O)[nH]2)c(OC)c1 | inactive | – |
| CCc1ccc2oc(-c3cccc(NC(=O)c4ccc(-c5cccc([N+](=O)[O-])c5)o4)c3)nc2c1 | inconclusive: 12.6 µM [cytotoxic, partial curve] | – |
| COc1ccc(-c2cc(C(=O)Oc3ccc(Cl)cc3)c3ccccc3n2)cc1 | inconclusive: 10 µM [cytotoxic, partial curve] | – |
| Cn1c(NCc2ccccc2F)nc2ccccc21 | inconclusive: 15.8 µM [cytotoxic, partial curve] | – |

| SMILES | Potency | activity change, negative = cytotoxicity |
| --- | --- | --- |
| CCOC(=O)c1ccc(N2C(=O)c3n[nH]c(-c4ccco4)c3C2c2cccc(F)c2)cc1 (stereo not given) | inconclusive: 31.6 µM [cytotoxic, single point] | – |
| Cc1ccc(NC(=O)CSc2nc3ccc(NC(=O)c4cccc(Cl)c4)cc3s2)c(C)c1 | inconclusive: 12.6 µM [cytotoxic, single point] | – |
| CCOC(=O)COc1ccc2cc(C(=O)OCC)c(=O)oc2c1 | inconclusive: 31.6 µM [cytotoxic, single point] | – |
| C/C(=N\NC(=O)CNc1cccc(C(F)(F)F)c1)c1cccc(Br)c1 | inconclusive: 35.5 µM [cytotoxic, single point] | – |
| O=C1C[C@H]2OCC=C3CN4CC[C@@]5(C(=O)O)[C@H](N1)[C@H]2[C@H]3C[C@H]45 | – | inactive: 3.24% [at 9.22 µM] |
| O=C(c1ccco1)N1CCN(C(=O)C2CCCc3c2[nH]c2ccc(Cl)cc32)CC1 (stereo not given) | inconclusive: 6.31 µM [cytotoxic, full curve] | – |
| COc1ccccc1CNc1ncnc2onc(-c3ccc(Cl)cc3)c12 | inactive | – |
| Cc1ccc2nc(-c3ccc(N4CCOCC4)cc3)c(Nc3ccccc3C)n2c1 | active: 12.6 µM | – |
| CCCCCOc1ccc(CSCCNC(=S)Nc2ccccc2)cc1 | inconclusive: 1 µM [cytotoxic, partial curve, poor fit] | – |
| COc1ccc(-n2nc3c(N4CCCC(C(=O)NCc5ccccc5C)C4)nnc(C)c3c2C)cc1 (stereo not given) | inconclusive: 35.5 µM [cytotoxic, single point] | – |
| Cc1nnc(SCC(=O)NCc2cccc(F)c2)c2nn(-c3ccccc3)c(C)c12 | inactive | – |
| O=S1(=O)C=C(Sc2nc3cc(Cl)ccc3o2)c2ccccc21 | active: 10 µM | – |
| O=C(Nn1cnnc1)c1cc2c(s1)CCCCC2 | inconclusive: 12.6 µM [cytotoxic, single point] | – |
| CC(C)c1cnc2c(c1SCC(=O)c1ccc(Cl)cc1)c(=O)n(C)c(=O)n2C | inconclusive: 3.55 µM [cytotoxic, single point] | – |
| CC(=O)c1sc(NC(=O)c2ccccc2F)nc1C | inconclusive: 10 µM [cytotoxic, partial curve] | – |
| COC(=O)c1[nH]c2ccc(C)cc2c1NC(=O)CN1CCN(c2ccc(F)cc2)CC1 | inconclusive: 25.1 µM [cytotoxic, single point] | – |
| CCCN1C(=O)/C(=C2\SC(N3CCCCC3)=NC2=O)c2ccccc21 | inconclusive: 10 µM [cytotoxic, partial curve] | – |
| C/C(=N\NC(=O)c1nn(C)c(C)c1Br)c1ccc(NC(=O)c2ccccc2F)cc1 | inconclusive: 0.0224 µM [cytotoxic, full curve, poor fit] | – |
| COc1ccc(Nc2nc(C)c3ccccc3n2)cc1 | inconclusive: 15.8 µM [cytotoxic, single point] | – |
| Cc1ccc(-c2cc(C(=O)Nc3cc(C)ccc3C)[nH]n2)c(O)c1 | inconclusive: 0.0251 µM [cytotoxic, full curve, poor fit] | – |
| CCc1ccc(C2=CC(c3cccc(OC)c3OC)n3c(nc4ccccc43)N2)cc1 (stereo not given) | active: 10 µM | – |
| Cc1ccc(-n2ncc3c(NCCc4ccccc4)ncnc32)cc1Cl | inconclusive: 17.8 µM [cytotoxic, partial curve, poor fit] | – |
